This note sets out measurements from ChEMBL document CHEMBL4888484, “Replenishing the malaria drug discovery pipeline: Screening and hit evaluation of the MMV Hit Generation Library 1 (HGL1) against asexual blood stage Plasmodium falciparum ,using a nano luciferase reporter read-out” (2022).

The campaign covered roughly 150,000 compounds. About 540 (0.36%) showed an effect of 50% or more. The list shows a part of the results.

The subject of this assay is Plasmodium falciparum. The assay is described as follows: Primary screen in NF54 nanoGlo assay, in single point, at 2uM, 72h; a lower Z score goes with more inhibition. The assay is classed as functional, Erythrocyte. The conditions noted are these: timepoint 72 hour.
`Cc1csc([C@H]2CCCN(S(=O)(=O)c3cnn(C)c3C)C2)n1`: the “% Inhibition” value turned out to be 26% and the Z score is -2.97.
Consider `COc1nsc(OC)c1C(=O)NC1(c2cc(Cl)cc(Br)c2)CC1`, for which the “% Inhibition” value was -1% and the Z score turned out to be 0.28.
Turning to `COc1ccc(CCNc2ccc3nc(C)nn3n2)c(F)c1`, the “% Inhibition” value is recorded as -4% and the Z score came to 0.43.
For the molecule `CC(=O)N1CCc2cc3cccc(C)c3nc21`, the “% Inhibition” value is reported as 1% and the Z score is on record as -0.15.
As for `Cn1c(C2CCN(C[C@H]3CCOC3)CC2)nc2ccccc21`, the “% Inhibition” value is on record as -14% and the Z score amounted to 1.26.
Consider `Cc1nonc1N1CCN(C(=O)CCc2ccc(F)c(F)c2)CC1`, for which the “% Inhibition” value is -1% and the Z score worked out at 0.16.
Taken in the same sequence, the figures for `CCc1onc(C)c1NC(=O)NC1CN(Cc2ccccc2)CC1C` (stereo not drawn) were -4% and 0.55.
Taken in the same sequence, the figures for `O=C(NC1CCOC(c2ccccc2)C1)N1CCCCCC1` (stereo not drawn) were -17% and 3.23.
On to `CN(Cc1ccccc1)C(=O)c1cccn2c(=O)c3ccc(Cl)cc3nc12`, for which the “% Inhibition” value was -9% and the Z score is listed as 1.11.
Take `Cc1[nH]cnc1CN(C)CCNc1cc([C@H]2CCOC2)ncn1`: the “% Inhibition” value is -12% and the Z score was determined as 1.24.
The matching figures for `CNC(=O)c1ccnc(N2CC[C@H]3[C@H](CCC(=O)N3CCCO)C2)c1`: -8% and 0.98.
Turning to `C=CCN(CC(O)c1ccc(OCc2ccccc2)cc1)C(C)CCc1ccccc1` (stereo not drawn), the “% Inhibition” value is -2% and the Z score was 0.3.
`Cc1ncsc1CNC1[C@@H]2CCO[C@@H]2C12CCCC2` (stereo partly drawn): the “% Inhibition” value is given as -6% and the Z score amounted to 1.14.
As for `Cc1c(C(=O)N2CCC(C(=O)N3CCCCCC3)CC2)oc2c(Cl)cccc12`, the “% Inhibition” value is reported as -9% and the Z score was found to be 1.36.
With `O=C(Nc1ccc(Cl)c(Br)c1)[C@H]1CCOC1`, the “% Inhibition” value is -7% and the Z score was 0.85.
Consider `COCCNc1nc(-c2cccc(F)c2)c2c(N)n(C)nc2n1`, for which the “% Inhibition” value is -13% and the Z score is 1.38.
The matching figures for `Cc1cc(C(=O)N2CCc3c(cccc3N3CCOC3=O)C2)c(C)o1`: 4% and -0.47.
Regarding `CC[C@H](C)NCCOc1ccc(C)c(C)c1`, the “% Inhibition” value was -12% and the Z score amounted to 1.67.
`Cc1nc(C)c(-c2csc(C[C@H](C)n3cc(Cl)cn3)n2)o1`: the “% Inhibition” value was -17% and the Z score is recorded as 1.97.
Taken in the same sequence, the figures for `Cc1nn(C(C)C)c(C)c1CN(C)c1cc([C@H]2CCOC2)ncn1` were 2% and -0.38.
Take `O=C(O)[C@@H](c1ccsc1)N1CCC(c2nc(-c3ccccc3)n[nH]2)CC1`: the “% Inhibition” value is -8% and the Z score was determined as 1.43.
Taken in the same sequence, the figures for `Cn1nncc1S(=O)(=O)N1CC(C)(C)C1C1CCCO1` (stereo not drawn) were -8% and 0.76.
Regarding `Cc1cc(NC(=O)c2cc(N3CCOCC3)ncn2)[nH]n1`, the “% Inhibition” value came to 12% and the Z score is recorded as -1.56.
Taken in the same sequence, the figures for `O=C(N[C@H]1[C@H](O)[C@H](O)C[C@@H]1c1ccncc1)C1CCOCC1` were -1% and 0.11.
Take `O=C(CC1CCCC1)NCCCN1C(=O)CNC1=O`: the “% Inhibition” value is reported as 2% and the Z score is recorded as -0.45.
Take `CS(=O)(=O)N1CCC(C(=O)N(Cc2cccs2)Cc2cccs2)CC1`: the “% Inhibition” value was -10% and the Z score worked out at 1.52.
`O=C(NC[C@H]1CCCN(c2cc(O)ncn2)C1)c1ccccc1-n1cnnc1`: the “% Inhibition” value was determined as 2% and the Z score is -0.44.
For the molecule `COc1ccc(CCOc2nc(-c3ccc(Cl)c(Cl)c3)n(-c3ccc(NC(=O)C(C)C)cc3)n2)cc1`, the “% Inhibition” value is listed as -12% and the Z score came to 1.35.
For `CC(C)(C)CN1CCC[C@@](O)(CNC(C)(C)C)C1=O`, the “% Inhibition” value was -5% and the Z score was 0.77.
As for `C[C@H](NC(=O)N1CCC(CCc2ccc(F)cc2F)CC1)c1cccnc1`, the “% Inhibition” value is -5% and the Z score was 0.92.
With `Cc1cccc2cc3c(nc12)N(C(=O)COc1ccccc1)CC3`, the “% Inhibition” value came out at 2% and the Z score is -0.26.
As for `O=C(Cn1cc(S(=O)(=O)N2CCCCC2)ccc1=O)Nc1ccccc1`, the “% Inhibition” value is -6% and the Z score worked out at 1.27.
Turning to `CCC(CC)N(C)Cc1nncn1C(C)C`, the “% Inhibition” value is -5% and the Z score turned out to be 0.7.
Consider `O=C(c1cccc(Cl)c1)N1CC[C@@]2(C1)NC(=O)N(Cc1ccc(Cl)cc1)C2=O`, for which the “% Inhibition” value was determined as 8% and the Z score is recorded as -1.02.
Regarding `O=c1ccn(CCCOc2ccc(F)cc2)c2c(OC(F)(F)F)cccc12`, the “% Inhibition” value was -9% and the Z score stood at 1.22.
Consider `CC(C)c1nn(C)c(N2CCOCC2)c1CNc1cc(CCc2ccccc2)ccn1`, for which the “% Inhibition” value is -7% and the Z score is 1.04.
Take `Cc1nn(-c2ccc(C(C)(C)C)cc2)c(C)c1[C@@H]1C=C[C@@H](NC(=O)CC(C)(C)CC(=O)O)C1`: the “% Inhibition” value is 33% and the Z score was -3.69.
As to `Cc1cccc(-c2nc(CN3CC[C@]4(CCCO4)CCC3=O)c(C)o2)c1`, the “% Inhibition” value is on record as 3% and the Z score was -0.48.
On to `C[C@@H](CNc1nc2cc(Br)ccc2o1)c1nncn1C`, for which the “% Inhibition” value is -11% and the Z score is 2.06.
As for `Cc1noc([C@@H]2CN(C(=O)Nc3cc(C)c4cn[nH]c4c3)C[C@H](C)O2)n1`, the “% Inhibition” value is reported as -3% and the Z score came to 0.53.
As to `Nc1cc(F)cc(CNC(=O)C(F)(F)F)c1`, the “% Inhibition” value is reported as -7% and the Z score came to 1.01.
`CCN(CC1CCCO1)C(=O)NC1CCCc2occc21` (stereo not drawn): the “% Inhibition” value is -12% and the Z score is reported as 1.63.
`COc1cc(C)c2[nH]c3c(c(=O)c2c1)CN(CC(=O)Nc1ccc(F)c(C)c1)CC3`: the “% Inhibition” value was determined as 43% and the Z score is on record as -1.61.
On to `Cc1cc(CS(=O)(=O)NCCOc2ccc(Cl)cc2)on1`, for which the “% Inhibition” value is reported as 31% and the Z score was -0.24.
Turning to `COc1ccc(F)c(-c2ncccc2C(=O)N2C[C@@H]3CC[C@H]2C3)c1`, the “% Inhibition” value turned out to be 9% and the Z score is listed as -1.28.
The matching figures for `N#CCC[C@H](NC1CCC2(CC1)OCCO2)c1ccccc1`: 1% and -0.07.
As for `Cc1ccc2nc(C(=O)N3CCCN(c4ccccc4C)CC3)c(F)n2c1`, the “% Inhibition” value is listed as -6% and the Z score stood at 1.14.
The matching figures for `CN(Cc1ccno1)C(=O)c1cc(Cn2ccc3ccccc32)[nH]n1`: -3% and 0.39.
The matching figures for `C#CCNC(=O)[C@H](C)N1CCOC(C)(C)C1`: -16% and 1.92.
The matching figures for `CC(C)c1nc(N2CCC(c3[nH]ncc3Cc3ccccc3)CC2)no1`: -14% and 1.34.
For the molecule `OC[C@H](Nc1ccccc1)c1ccccc1`, the “% Inhibition” value was -8% and the Z score was determined as 1.05.
For `O=C(Nc1ccc2c(c1)OCO2)c1cc2ccccc2[nH]1`, the “% Inhibition” value amounted to 0% and the Z score is 0.02.
For the molecule `CC(=O)c1ccc(Oc2nc(C)nc(N(C)Cc3ccc(F)cc3)c2N)cc1`, the “% Inhibition” value was -1% and the Z score was found to be 0.18.
Consider `CCc1nnc(NC(=O)[C@H](C)N2CCC3(CC2)N=C(N(C)C)NC3=O)s1`, for which the “% Inhibition” value turned out to be 0% and the Z score was -0.08.

As a reminder, the % Inhibition is the relative decrease from the control value, in per cent.
